The list shows a part of the results.
What was measured:
Test in all cases: glycan array binding signal (z-score within array); higher = stronger binding
Conditions in all cases: glycan notation: IUPAC condensed, linker removed
[1] = target: GlcNAc(b1-3)Gal(b1-3)GalNAc
Method in brief: (§1)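 The Consortium for Functional Glycomics database supplied 3228 glycan arrays, of which those lacking an available protein sequence were dropped. The binding signal, a within-array Z-score, was averaged across arrays of the same protein sequence and across linkers. Negative scores can be read as non-binding.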

GlcNAc(b1-3)Gal(b1-4)Glc = target: GlcNAc(b1-3)Gal(b1-4)Glc
Method in brief: as §1

[2] = target: GlcNAc(b1-3)Gal(b1-4)GlcNAc
Method in brief: as §1

[3] = target: GlcNAc(b1-3)Gal(b1-4)GlcNAc(b1-2)Man(a1-3)[GlcNAc(b1-3)Gal(b1-4)GlcNAc(b1-2)Man(a1-6)]Man(b1-4)GlcNAc(b1-4)GlcNAc
Method in brief: as §1

[4] = target: GlcNAc(b1-3)Gal(b1-4)GlcNAc(b1-2)Man(a1-3)[GlcNAc(b1-3)Gal(b1-4)GlcNAc(b1-2)Man(a1-6)]Man(b1-4)GlcNAc(b1-4)[Fuc(a1-6)]GlcNAc
Method in brief: as §1

[5] = target: GlcNAc(b1-3)Gal(b1-4)GlcNAc(b1-2)[GlcNAc(b1-3)Gal(b1-4)GlcNAc(b1-6)]Man(a1-6)[GlcNAc(b1-3)Gal(b1-4)GlcNAc(b1-2)Man(a1-3)]Man(b1-4)GlcNAc(b1-4)GlcNAc
Method in brief: as §1

[6] = target: GlcNAc(b1-3)Gal(b1-4)GlcNAc(b1-3)Gal(b1-4)GlcNAc
Method in brief: as §1

[7] = target: GlcNAc(b1-3)Gal(b1-4)GlcNAc(b1-3)Gal(b1-4)GlcNAc(b1-2)Man(a1-3)[GlcNAc(b1-3)Gal(b1-4)GlcNAc(b1-3)Gal(b1-4)GlcNAc(b1-2)Man(a1-6)]Man(b1-4)GlcNAc(b1-4)GlcNAc
Method in brief: as §1

[8] = target: GlcNAc(b1-3)Gal(b1-4)GlcNAc(b1-3)Gal(b1-4)GlcNAc(b1-2)Man(a1-3)[GlcNAc(b1-3)Gal(b1-4)GlcNAc(b1-3)Gal(b1-4)GlcNAc(b1-2)Man(a1-6)]Man(b1-4)GlcNAc(b1-4)[Fuc(a1-6)]GlcNAc
Method in brief: as §1

[9] = target: GlcNAc(b1-3)Gal(b1-4)GlcNAc(b1-3)Gal(b1-4)GlcNAc(b1-2)[GlcNAc(b1-3)Gal(b1-4)GlcNAc(b1-3)Gal(b1-4)GlcNAc(b1-6)]Man(a1-6)[GlcNAc(b1-3)Gal(b1-4)GlcNAc(b1-3)Gal(b1-4)GlcNAc(b1-2)Man(a1-3)]Man(b1-4)GlcNAc(b1-4)[Fuc(a1-6)]GlcNAc
Method in brief: as §1

[10] = target: GlcNAc(b1-3)Gal(b1-4)GlcNAc(b1-3)Gal(b1-4)GlcNAc(b1-3)Gal(b1-4)GlcNAc(b1-2)Man(a1-3)[GlcNAc(b1-3)Gal(b1-4)GlcNAc(b1-3)Gal(b1-4)GlcNAc(b1-3)Gal(b1-4)GlcNAc(b1-2)Man(a1-6)]Man(b1-4)GlcNAc(b1-4)GlcNAc
Method in brief: as §1

[11] = target: GlcNAc(b1-3)Gal(b1-4)GlcNAc(b1-3)Gal(b1-4)GlcNAc(b1-3)Gal(b1-4)GlcNAc(b1-2)Man(a1-3)[GlcNAc(b1-3)Gal(b1-4)GlcNAc(b1-3)Gal(b1-4)GlcNAc(b1-3)Gal(b1-4)GlcNAc(b1-2)Man(a1-6)]Man(b1-4)GlcNAc(b1-4)[Fuc(a1-6)]GlcNAc
Method in brief: as §1

[12] = target: GlcNAc(b1-3)Gal(b1-4)GlcNAc(b1-3)Gal(b1-4)GlcNAc(b1-3)Gal(b1-4)GlcNAc(b1-2)[GlcNAc(b1-3)Gal(b1-4)GlcNAc(b1-3)Gal(b1-4)GlcNAc(b1-3)Gal(b1-4)GlcNAc(b1-6)]Man(a1-6)[GlcNAc(b1-3)Gal(b1-4)GlcNAc(b1-3)Gal(b1-4)GlcNAc(b1-3)Gal(b1-4)GlcNAc(b1-2)Man(a1-3)]Man(b1-4)GlcNAc(b1-4)[Fuc(a1-6)]GlcNAc
Method in brief: as §1

[13] = target: GlcNAc(b1-3)Gal(b1-4)GlcNAc(b1-3)Gal(b1-4)GlcNAc(b1-3)Gal(b1-4)GlcNAc(b1-3)Gal(b1-4)GlcNAc(b1-2)Man(a1-3)[GlcNAc(b1-3)Gal(b1-4)GlcNAc(b1-3)Gal(b1-4)GlcNAc(b1-3)Gal(b1-4)GlcNAc(b1-3)Gal(b1-4)GlcNAc(b1-2)Man(a1-6)]Man(b1-4)GlcNAc(b1-4)GlcNAc
Method in brief: as §1

[14] = target: GlcNAc(b1-3)Gal(b1-4)GlcNAc(b1-3)Gal(b1-4)GlcNAc(b1-3)Gal(b1-4)GlcNAc(b1-3)Gal(b1-4)GlcNAc(b1-2)Man(a1-3)[GlcNAc(b1-3)Gal(b1-4)GlcNAc(b1-3)Gal(b1-4)GlcNAc(b1-3)Gal(b1-4)GlcNAc(b1-3)Gal(b1-4)GlcNAc(b1-2)Man(a1-6)]Man(b1-4)GlcNAc(b1-4)[Fuc(a1-6)]GlcNAc
Method in brief: as §1

[15] = target: GlcNAc(b1-3)Gal(b1-4)GlcNAc(b1-3)Gal(b1-4)GlcNAc(b1-3)Gal(b1-4)GlcNAc(b1-3)Gal(b1-4)GlcNAc(b1-2)[GlcNAc(b1-3)Gal(b1-4)GlcNAc(b1-3)Gal(b1-4)GlcNAc(b1-3)Gal(b1-4)GlcNAc(b1-3)Gal(b1-4)GlcNAc(b1-6)]Man(a1-6)[GlcNAc(b1-3)Gal(b1-4)GlcNAc(b1-3)Gal(b1-4)GlcNAc(b1-3)Gal(b1-4)GlcNAc(b1-3)Gal(b1-4)GlcNAc(b1-2)Man(a1-3)]Man(b1-4)GlcNAc(b1-4)[Fuc(a1-6)]GlcNAc
Method in brief: as §1

[16] = target: GlcNAc(b1-3)Gal(b1-4)GlcNAc(b1-3)Gal(b1-4)GlcNAc(b1-3)GalNAc
Method in brief: as §1

[17] = target: GlcNAc(b1-3)Gal(b1-4)GlcNAc(b1-3)GalNAc
Method in brief: as §1

[18] = target: GlcNAc(b1-3)Gal(b1-4)GlcNAc(b1-3)[GlcNAc(b1-3)Gal(b1-4)GlcNAc(b1-3)]GalNAc
Method in brief: as §1

[19] = target: GlcNAc(b1-3)Gal(b1-4)GlcNAc(b1-6)[Gal(b1-3)]GalNAc
Method in brief: as §1

[20] = target: GlcNAc(b1-3)Gal(b1-4)GlcNAc(b1-6)[GlcNAc(b1-3)Gal(b1-3)]GalNAc
Method in brief: as §1

[21] = target: GlcNAc(b1-3)Gal(b1-4)GlcNAc(b1-6)[GlcNAc(b1-3)]Gal(b1-4)GlcNAc
Method in brief: as §1

GlcNAc(b1-3)GalNAc = target: GlcNAc(b1-3)GalNAc
Method in brief: as §1

GlcNAc(b1-3)Man = target: GlcNAc(b1-3)Man
Method in brief: as §1

[22] = target: GlcNAc(b1-3)[GlcNAc(b1-4)][GlcNAc(b1-6)]GlcNAc
Method in brief: as §1

[23] = target: GlcNAc(b1-3)[GlcNAc(b1-6)]Gal(b1-4)GlcNAc
Method in brief: as §1

[24] = target: GlcNAc(b1-3)[GlcNAc(b1-6)]GalNAc
Method in brief: as §1

[25] = target: GlcNAc(b1-4)Gal(b1-4)GlcNAc
Method in brief: as §1

GlcNAc(b1-4)GlcNAc = target: GlcNAc(b1-4)GlcNAc
Method in brief: as §1

[26] = target: GlcNAc(b1-4)GlcNAc(b1-4)GlcNAc
Method in brief: as §1

[27] = target: GlcNAc(b1-4)GlcNAc(b1-4)GlcNAc(b1-4)GlcNAc(b1-4)GlcNAc
Method in brief: as §1

[28] = target: GlcNAc(b1-4)GlcNAc(b1-4)GlcNAc(b1-4)GlcNAc(b1-4)GlcNAc(b1-4)GlcNAc
Method in brief: as §1

[29] = target: GlcNAc(b1-4)[GlcNAc(b1-6)]GalNAc
Method in brief: as §1

[30] = target: GlcNAc(b1-6)Gal(b1-4)GlcNAc
Method in brief: as §1

GlcNAc(b1-6)GalNAc = target: GlcNAc(b1-6)GalNAc
Method in brief: as §1

[31] = target: GlcNAc6S(b1-3)Gal(b1-4)GlcNAc
Method in brief: as §1

Kdn(a2-3)Gal(b1-3)GalNAc = target: Kdn(a2-3)Gal(b1-3)GalNAc
Method in brief: as §1

Kdn(a2-3)Gal(b1-3)GlcNAc = target: Kdn(a2-3)Gal(b1-3)GlcNAc
Method in brief: as §1

Kdn(a2-3)Gal(b1-4)Glc = target: Kdn(a2-3)Gal(b1-4)Glc
Method in brief: as §1

Kdn(a2-3)Gal(b1-4)GlcNAc = target: Kdn(a2-3)Gal(b1-4)GlcNAc
Method in brief: as §1

[32] = target: Kdn(a2-3)Gal(b1-4)[Fuc(a1-3)]GlcNAc
Method in brief: as §1

Kdn(a2-6)Gal(b1-4)GlcNAc = target: Kdn(a2-6)Gal(b1-4)GlcNAc
Method in brief: as §1

[33] = target: Man(a1-2)Man(a1-2)Man(a1-3)Man
Method in brief: as §1

[34] = target: Man(a1-2)Man(a1-2)Man(a1-6)[Man(a1-3)]Man
Method in brief: as §1

Man(a1-2)Man(a1-3)Man = target: Man(a1-2)Man(a1-3)Man
Method in brief: as §1

B1: CFEM-CGl (Candida glabrata), Q6FRS0 (protein)
chain: VLATPPACLLACVAQVSKQSSQCHTLNQVGCFCENENTAIKNCLDSICPNGNSDAAYTAFKNSCGDVGKAVASV
With B1 the “glycan array binding signal (z-score)” value [1] was -0.243, the “glycan array binding signal (z-score)” value (GlcNAc(b1-3)Gal(b1-4)Glc) was -0.467 and the “glycan array binding signal (z-score)” value [2] was -0.164. For the same binder, the “glycan array binding signal (z-score)” value [3] was -0.076, the “glycan array binding signal (z-score)” value [4] was -0.067 and the “glycan array binding signal (z-score)” value [5] was 0.443. For the same binder, the “glycan array binding signal (z-score)” value [6] was -0.321, the “glycan array binding signal (z-score)” value [7] was 3.84 and the “glycan array binding signal (z-score)” value [8] was 1.29. The “glycan array binding signal (z-score)” value [9] was 0.75, the “glycan array binding signal (z-score)” value [10] was -0.223 and the “glycan array binding signal (z-score)” value [11] was 1.97. The “glycan array binding signal (z-score)” value [12] was 0.185, the “glycan array binding signal (z-score)” value [13] was -0.264 and the “glycan array binding signal (z-score)” value [14] was -0.272. The “glycan array binding signal (z-score)” value [15] was 0.1, the “glycan array binding signal (z-score)” value [16] was -0.32 and the “glycan array binding signal (z-score)” value [17] was -0.202. The “glycan array binding signal (z-score)” value [18] was -0.124, the “glycan array binding signal (z-score)” value [19] was 0.757 and the “glycan array binding signal (z-score)” value [20] was -0.079. For the same binder, the “glycan array binding signal (z-score)” value [21] was -0.42, the “glycan array binding signal (z-score)” value (GlcNAc(b1-3)GalNAc) was -0.059 and the “glycan array binding signal (z-score)” value (GlcNAc(b1-3)Man) was -0.407. The “glycan array binding signal (z-score)” value [22] was -0.399, the “glycan array binding signal (z-score)” value [23] was -0.258 and the “glycan array binding signal (z-score)” value [24] was -0.135. The “glycan array binding signal (z-score)” value [25] was -0.343, the “glycan array binding signal (z-score)” value (GlcNAc(b1-4)GlcNAc) was -0.269 and the “glycan array binding signal (z-score)” value [26] was -0.168. The “glycan array binding signal (z-score)” value [27] was -0.156, the “glycan array binding signal (z-score)” value [28] was 0.197 and the “glycan array binding signal (z-score)” value [29] was -0.333. The “glycan array binding signal (z-score)” value [30] was -0.396, the “glycan array binding signal (z-score)” value (GlcNAc(b1-6)GalNAc) was 0.678 and the “glycan array binding signal (z-score)” value [31] was -0.04. For the same binder, the “glycan array binding signal (z-score)” value (Kdn(a2-3)Gal(b1-3)GalNAc) was -0.025, the “glycan array binding signal (z-score)” value (Kdn(a2-3)Gal(b1-3)GlcNAc) was -0.288 and the “glycan array binding signal (z-score)” value (Kdn(a2-3)Gal(b1-4)Glc) was -0.384. For the same binder, the “glycan array binding signal (z-score)” value (Kdn(a2-3)Gal(b1-4)GlcNAc) was -0.167, the “glycan array binding signal (z-score)” value [32] was 0.32 and the “glycan array binding signal (z-score)” value (Kdn(a2-6)Gal(b1-4)GlcNAc) was -0.13. For the same binder, the “glycan array binding signal (z-score)” value [33] was 0.893, the “glycan array binding signal (z-score)” value [34] was -0.069 and the “glycan array binding signal (z-score)” value (Man(a1-2)Man(a1-3)Man) was -0.381.
